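In this assay, cells in 96-well plates receive the compound at five concentrations for 48 hours. Endpoints are linearly interpolated between the surrounding concentrations. GI50 is the concentration that inhibits growth by half.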 For part of its entries the source gives two or more results. They are shown here; other results are not. There may be further records. Records of one sample usually come from different ranges of test concentrations, not given here; some values may only mark the edge of a range.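 TGI: total growth inhibition.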
What was measured:
Experiment in all cases: NCI tumour cell line growth inhibition, 48 h
HCT-116 colon = test system: HCT-116 colon
A549 NSCLC = test system: A549 NSCLC
PC-3 prostate = test system: PC-3 prostate
UACC-62 melanoma = test system: UACC-62 melanoma
MDA-MB-435 = test system: MDA-MB-435
SW-620 colon = test system: SW-620 colon
OVCAR-8 ovarian = test system: OVCAR-8 ovarian
BT-549 breast = test system: BT-549 breast
SNB-75 CNS = test system: SNB-75 CNS
NCI/ADR-RES ovarian = test system: NCI/ADR-RES ovarian
OVCAR-3 ovarian = test system: OVCAR-3 ovarian
HL-60(TB) leukemia = test system: HL-60(TB) leukemia
NCI-H460 lung = test system: NCI-H460 lung
MALME-3M melanoma = test system: MALME-3M melanoma
UACC-257 melanoma = test system: UACC-257 melanoma
MDA-N = test system: MDA-N
M14 melanoma = test system: M14 melanoma
U251 CNS = test system: U251 CNS
COLO 205 colon = test system: COLO 205 colon
RPMI-8226 leukemia = test system: RPMI-8226 leukemia
HOP-62 NSCLC = test system: HOP-62 NSCLC
SF-268 CNS = test system: SF-268 CNS
HCC-2998 colon = test system: HCC-2998 colon
RXF 393 renal = test system: RXF 393 renal
ACHN renal = test system: ACHN renal
SK-MEL-5 melanoma = test system: SK-MEL-5 melanoma
LOX IMVI melanoma = test system: LOX IMVI melanoma
EKVX NSCLC = test system: EKVX NSCLC
NCI-H522 lung = test system: NCI-H522 lung
TK-10 renal = test system: TK-10 renal
NCI-H226 lung = test system: NCI-H226 lung
SNB-19 CNS = test system: SNB-19 CNS
HT29 colon = test system: HT29 colon
DU-145 prostate = test system: DU-145 prostate
SF-295 CNS = test system: SF-295 CNS
MOLT-4 leukemia = test system: MOLT-4 leukemia
P388/ADR leukemia = test system: P388/ADR leukemia
OVCAR-4 ovarian = test system: OVCAR-4 ovarian
KM12 colon = test system: KM12 colon
HOP-92 NSCLC = test system: HOP-92 NSCLC
SF-539 CNS = test system: SF-539 CNS

Structure (SMILES): CC(C)CCCCCCCCCCCCC(=O)NCC(=O)NC1C(O)C(O)C(Nc2ncnc3nc[nH]c23)OC1C(O)CO (stereo not given)
- GI50 (HCT-116 colon): < 0.01 nM [1 test] and 5 nM [mean of 2 tests]
- TGI (HCT-116 colon): 0.129 nM, 25.1 nM, 6.91 nM
- GI50 (A549 NSCLC): < 0.01 nM [1 test] and 5 nM [mean of 4 tests] and 0.463 nM [mean of 5 tests]
- TGI (PC-3 prostate): 13.6 nM and 376 nM
- TGI (UACC-62 melanoma): < 0.01 nM and 3.48 nM
- TGI (MDA-MB-435): 17.5 nM and 494 nM
- TGI (SW-620 colon): 9.69 nM [mean of 3 tests] and 103 nM [mean of 5 tests]
- GI50 (OVCAR-8 ovarian): < 0.01 nM [1 test] and 5 nM [mean of 4 tests]
- TGI (OVCAR-8 ovarian): 1.09 nM, 52.6 nM, 10.9 nM
- TGI (BT-549 breast): 6.61 nM and 515 nM
- TGI (SNB-75 CNS): < 0.01 nM and 3.66 nM
- GI50 (NCI/ADR-RES ovarian): < 0.01 nM [1 test] and 5 nM [mean of 4 tests]
- GI50 (OVCAR-3 ovarian): < 0.01 nM [1 test] and 5 nM [mean of 4 tests]
- GI50 (HL-60(TB) leukemia): < 0.01 nM [1 test] and 5 nM [mean of 3 tests]
- TGI (HL-60(TB) leukemia): 1.63 nM and 50 nM
- GI50 (NCI-H460 lung): < 0.01 nM [1 test] and 5 nM [mean of 4 tests]
- TGI (NCI-H460 lung): 1.05 nM, 14.8 nM, 7.34 nM
- GI50 (MALME-3M melanoma): < 0.01 nM [1 test] and 5 nM [mean of 4 tests]
- GI50 (UACC-257 melanoma): < 0.01 nM [1 test] and 5 nM [mean of 3 tests]
- TGI (UACC-257 melanoma): < 0.01 nM, 14.7 nM, 10.3 nM
- TGI (MDA-N): 22.8 nM and 564 nM
- TGI (M14 melanoma): 4.11 nM and 334 nM
- GI50 (U251 CNS): < 0.01 nM [1 test] and 5 nM [mean of 3 tests]
- TGI (U251 CNS): < 0.01 nM, 7.3 nM, 7.39 nM
- GI50 (COLO 205 colon): < 0.01 nM [1 test] and 5 nM [mean of 3 tests] and 0.643 nM [mean of 5 tests]
- GI50 (RPMI-8226 leukemia): < 0.01 nM [1 test] and 5 nM [mean of 3 tests]
- TGI (RPMI-8226 leukemia): 2.21 nM, 2.49 nM, 108 nM
- TGI (HOP-62 NSCLC): < 0.01 nM and 3.35 nM
- GI50 (SF-268 CNS): < 0.01 nM [1 test] and 5 nM [mean of 2 tests]
- TGI (SF-268 CNS): 0.0167 nM, 67.4 nM, 38.1 nM
- TGI (HCC-2998 colon): 0.446 nM and 4.79 nM
- TGI (RXF 393 renal): < 0.01 nM and 13.5 nM
- TGI (ACHN renal): 1.69 nM and 608 nM
- GI50 (SK-MEL-5 melanoma): < 0.01 nM [1 test] and 5 nM [mean of 3 tests]
- TGI (SK-MEL-5 melanoma): 2.06 nM, 23.1 nM, 13.2 nM
- GI50 (LOX IMVI melanoma): < 0.01 nM and 15.1 nM
- TGI (LOX IMVI melanoma): < 0.01 nM, 35.6 nM, 2.59 µM
- GI50 (EKVX NSCLC): < 0.01 nM [1 test] and 5 nM [mean of 3 tests]
- GI50 (NCI-H522 lung): < 0.01 nM [1 test] and 5 nM [mean of 2 tests]
- TGI (NCI-H522 lung): < 0.01 nM, 8.81 nM, 7.88 nM
- TGI (TK-10 renal): 2.26 nM and 508 nM
- GI50 (NCI-H226 lung): < 0.01 nM [1 test] and 5 nM [mean of 3 tests]
- TGI (NCI-H226 lung): < 0.01 nM, 10.5 nM, 5.8 nM
- GI50 (SNB-19 CNS): < 0.01 nM [1 test] and 5 nM [mean of 3 tests]
- GI50 (HT29 colon): < 0.01 nM [1 test] and 5 nM [mean of 2 tests]
- TGI (DU-145 prostate): 0.0119 nM and 447 nM
- GI50 (SF-295 CNS): < 0.01 nM [1 test] and 5 nM [mean of 3 tests]
- TGI (SF-295 CNS): < 0.01 nM, 35.3 nM, 5.95 nM
- GI50 (MOLT-4 leukemia): < 0.01 nM [1 test] and 5 nM [mean of 4 tests]
- TGI (P388/ADR leukemia): < 18.8 nM and 15.9 µM
- TGI (OVCAR-4 ovarian): 0.0426 nM and 26.7 nM
- GI50 (KM12 colon): < 0.01 nM [1 test] and 5 nM [mean of 3 tests]
- TGI (HOP-92 NSCLC): < 0.01 nM and 1.77 nM
- GI50 (SF-539 CNS): < 0.01 nM [1 test] and 5 nM [mean of 3 tests]
- TGI (SF-539 CNS): < 0.01 nM, < 20.8 nM, 6.06 nM

Reference: PubChem BioAssay (NCI)
